These are yes or no findings as the source states them, for the method shown. Some entries that bind do so weakly or less than the wild type. For some of these results: Tags and fused reporters may be left off the sequences shown.
T1: full-length mHVEM R43D-M56A-K64D triple mutation-mCherry, on cells (mouse), Q80WM9
T1 chain: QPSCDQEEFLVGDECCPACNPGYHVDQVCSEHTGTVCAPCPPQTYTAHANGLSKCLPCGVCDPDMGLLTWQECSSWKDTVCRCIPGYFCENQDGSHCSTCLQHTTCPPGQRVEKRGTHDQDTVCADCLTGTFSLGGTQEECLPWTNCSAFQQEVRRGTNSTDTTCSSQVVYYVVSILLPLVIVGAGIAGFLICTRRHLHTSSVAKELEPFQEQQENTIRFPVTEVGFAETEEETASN

By UniProt entry, the sequences of proteins in these tests, tags left out.
UniProt Q9QYH9: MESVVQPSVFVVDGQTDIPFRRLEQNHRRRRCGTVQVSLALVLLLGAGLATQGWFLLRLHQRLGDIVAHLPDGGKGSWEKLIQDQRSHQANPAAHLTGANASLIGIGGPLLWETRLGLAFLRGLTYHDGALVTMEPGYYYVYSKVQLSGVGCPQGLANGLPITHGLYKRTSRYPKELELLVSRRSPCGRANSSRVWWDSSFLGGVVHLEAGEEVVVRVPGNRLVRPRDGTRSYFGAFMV


Assays:
[1] = target: full-length mHVEM R43D-mCherry, on cells (mouse) (UniProt Q80WM9); assay: flow cytometry on cells; cell–cell method: cells with mHVEM-mCherry mixed with cells with mBTLA-EGFP or mLIGHT-IRES-EGFP, shaken at 900 rpm at room temperature for 2 h; percent double-positive cells
[2] = target: full-length mHVEM M56D-mCherry, on cells (mouse) (UniProt Q80WM9); assay: as above
[3] = target: full-length WT mouse HVEM-mCherry, on cells (mouse) (UniProt Q80WM9); assay: as above
[4] = target: full-length mHVEM A76D-mCherry, on cells (mouse) (UniProt Q80WM9); assay: as above
[5] = target: full-length mHVEM L94D-mCherry, on cells (mouse) (UniProt Q80WM9); assay: as above
[6] = target: full-length mHVEM L90A-mCherry, on cells (mouse) (UniProt Q80WM9); assay: as above
[7] = target: full-length mHVEM V74D-mCherry, on cells (mouse) (UniProt Q80WM9); assay: as above
[8] = target: full-length mHVEM H86D-mCherry, on cells (mouse) (UniProt Q80WM9); assay: as above
[9] = target: full-length mHVEM G72D-mCherry, on cells (mouse) (UniProt Q80WM9); assay: as above
[10] = target: full-length mHVEM G72R-V74A double mutein-mCherry, on cells (mouse) (UniProt Q80WM9); assay: as above
[11] = target: full-length mHVEM L94A-mCherry, on cells (mouse) (UniProt Q80WM9); assay: as above
[12] = target: full-length mHVEM H86D-L90A double mutein-mCherry, on cells (mouse) (UniProt Q80WM9); assay: as above
[13] = target: full-length mHVEM R43D-M56A-K64D triple mutation-mCherry, on cells (mouse) (UniProt Q80WM9); assay: as above
[14] = target: mHVEM (Q39-Q206)-human IgG1-hexa-His, WT (mouse) (UniProt Q80WM9); assay: BLI; Octet; mHVEM-hIgG1 immobilised on the sensors, challenged with different concentrations of mLIGHT, mBTLA or mCD160; steady-state fit for mLIGHT, 1:1 Langmuir model for mBTLA and mCD160; both purified
[15] = target: mHVEM^−BT/160 (G72R-V74A) soluble protein, mHVEM-hIgG1 format (mouse) (UniProt Q80WM9); assay: as above
[16] = target: T1, full-length mHVEM R43D-M56A-K64D triple …; assay: flow cytometry on cells; cell–cell method: cells with mHVEM-mCherry mixed with cells with mBTLA-EGFP or mLIGHT-IRES-EGFP, shaken at 900 rpm at room temperature for 2 h; percent double-positive cells; conditions: remark: other sources report otherwise

Molecule	binding [1]	binding [2]	binding [3]	binding [4]	binding [5]	binding [6]	binding [7]	binding [8]	binding [9]	binding [10]	binding [11]	binding [12]	binding [13]	binding [14]	binding [15]	binding [16]
full-length mouse LIGHT, on cells (mLIGHT-IRES-EGFP) (from UniProt Q9QYH9 1-239) (ligand)	binds	binds	binds	binds	binds	binds	binds	binds	binds	binds	binds	no binding	binds			
mouse BTLA, soluble protein used as analyte in the Octet experiment (ligand, UniProt Q7TSA3 30-183, looked up, mouse BTLA (CD272), soluble form; also called mBTLA) EKATKRNDEECPVQLTITRNSKQSARTGELFKIQCPVKYCVHRPNVTWCKHNGTICVPLEVSPQLYTSWEENQSVPVFVLHFKPIHLSDNGSYSCSTNFNSQVINSHSVTIHVRERTQNSSEHPLITVSDIPDATNASGPSTMEERPGRTWLLY														binds	no binding	

The remaining lines, values ahead:

binding [1]	binding [2]	binding [3]	binding [4]	binding [5]	binding [6]	binding [7]	binding [8]	binding [9]	binding [10]	binding [11]	binding [12]	binding [13]	binding [14]	binding [15]	binding [16]	Molecule
binds	binds	binds	binds	binds	binds	binds	binds	binds	no binding	binds	binds					full-length mouse BTLA-EGFP, on cells (from UniProt Q7TSA3 30-306) (ligand)
															binds	full-length mouse BTLA-EGFP, on cells, Q7TSA3 30-306 (ligand) EKATKRNDEECPVQLTITRNSKQSARTGELFKIQCPVKYCVHRPNVTWCKHNGTICVPLEVSPQLYTSWEENQSVPVFVLHFKPIHLSDNGSYSCSTNFNSQVINSHSVTIHVRERTQNSSEHPLITVSDIPDATNASGPSTMEERPGRTWLLYTLLPLGALLLLLACVCLLCFLKRIQGKEKKPSDLAGRDTNLVDIPASSRTNHQALPSGTGIYDNDPWSSMQDESELTISLQSERNNQGIVYASLNHCVIGRNPRQENNMQEAPTEYASICVRS

— PMC8558838 (The Journal of Experimental Medicine, 2021)
